The record followed here is paper PMC3069058.

Protein sequences, listed by entry. Tags and fused reporters are not part of them. Lines headed by an entry give the natural chain unless they say otherwise; changes in a name come on top. Residues count along the entry.
UniProt Q9BQ69: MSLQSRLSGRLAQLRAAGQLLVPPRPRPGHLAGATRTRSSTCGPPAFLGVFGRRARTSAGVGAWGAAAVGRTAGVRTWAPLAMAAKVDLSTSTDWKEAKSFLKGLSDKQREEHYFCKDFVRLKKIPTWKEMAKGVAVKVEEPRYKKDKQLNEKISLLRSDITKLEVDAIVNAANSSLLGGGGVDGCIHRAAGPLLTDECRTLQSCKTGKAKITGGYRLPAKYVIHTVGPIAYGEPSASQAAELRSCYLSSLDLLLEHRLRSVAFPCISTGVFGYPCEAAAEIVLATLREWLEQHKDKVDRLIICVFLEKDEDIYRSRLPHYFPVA
UniProt Q04206: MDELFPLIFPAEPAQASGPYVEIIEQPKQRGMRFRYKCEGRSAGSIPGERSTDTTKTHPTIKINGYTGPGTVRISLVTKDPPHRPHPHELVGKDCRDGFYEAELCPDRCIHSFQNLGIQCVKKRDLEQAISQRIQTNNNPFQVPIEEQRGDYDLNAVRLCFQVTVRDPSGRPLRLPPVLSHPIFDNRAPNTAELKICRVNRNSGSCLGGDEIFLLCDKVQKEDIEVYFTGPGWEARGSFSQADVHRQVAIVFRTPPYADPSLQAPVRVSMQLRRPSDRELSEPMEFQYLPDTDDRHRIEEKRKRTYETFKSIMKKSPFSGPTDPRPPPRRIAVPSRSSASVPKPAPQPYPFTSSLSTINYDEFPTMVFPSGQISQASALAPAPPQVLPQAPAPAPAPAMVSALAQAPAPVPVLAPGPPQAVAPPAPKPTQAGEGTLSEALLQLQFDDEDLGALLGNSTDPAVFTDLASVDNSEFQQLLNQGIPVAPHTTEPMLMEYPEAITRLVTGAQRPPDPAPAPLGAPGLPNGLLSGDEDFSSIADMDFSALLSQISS
UniProt P19838, residues 1-433: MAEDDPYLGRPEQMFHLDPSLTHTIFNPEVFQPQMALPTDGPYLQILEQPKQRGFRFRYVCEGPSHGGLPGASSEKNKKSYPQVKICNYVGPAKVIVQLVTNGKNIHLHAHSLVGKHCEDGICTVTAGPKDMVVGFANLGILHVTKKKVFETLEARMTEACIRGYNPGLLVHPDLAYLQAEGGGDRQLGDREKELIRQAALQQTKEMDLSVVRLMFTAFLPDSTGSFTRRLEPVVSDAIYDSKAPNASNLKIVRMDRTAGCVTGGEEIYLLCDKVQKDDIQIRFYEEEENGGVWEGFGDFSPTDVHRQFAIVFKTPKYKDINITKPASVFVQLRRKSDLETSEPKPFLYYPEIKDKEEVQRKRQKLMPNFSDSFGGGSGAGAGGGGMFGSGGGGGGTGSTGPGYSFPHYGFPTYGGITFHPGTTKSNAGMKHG

Assay [1] deals with GST-LRP16 (UniProt Q9BQ69). Kind of assay: pull-down; GST or GST fusion protein as bait, incubated with [35S]-labeled in vitro translated protein; done as described previously [23],[53]; only the target purified.
Assay [2] deals with endogenous p65 (human (endogenous in 293T)) (UniProt Q04206). The assay is described as follows: co-IP; endogenous proteins, nuclear lysates of 293T cells transfected with control or LRP16 siRNAs and treated with 10 ng/ml TNF-α for the indicated times; IP and immunoblot with the indicated antibodies. A general note: Immunoblotting shows a protein as a band on a membrane.
The target is the same in assay [3]. Kind of assay: co-IP; endogenous proteins, 293T cell lysates, cells untreated or treated with TNF-α (10 ng/ml) for the indicated times; IP with anti-p65 or anti-LRP16 antibody, immunoblot.
Assay [4] has as its target endogenous LRP16 (human (endogenous in 293T)) (UniProt Q9BQ69). Described as above.
The target of assay [5] is Flag-tagged LRP16 (UniProt Q9BQ69). Kind of assay: co-IP; 293T cells cotransfected with p65 and Flag-tagged LRP16 constructs, lysed 48 h after transfection; CoIP with the indicated antibodies.

No constants are given. Whether binding was seen depends on the method and setting. In cells and extracts the contact can be indirect. Some entries that bind do so weakly or less than the wild type.

Turning to “p65 fragment 285–551 (from UniProt Q04206 285-551) (domain or fragment)”, the binding entry in assay [1] was “no binding”.
In the case of “p65 (full-length, [35S]-labeled, in vitro translated) (from UniProt Q04206 1-551)”, the binding entry in assay [1] is “binds”.
Still for that read-out and setting: the value for “p65 fragment 1–286 (from UniProt Q04206 1-286) (domain or fragment)” was “binds”; that for “p50 ([35S]methionine-labeled) (from UniProt P19838 1-433)” was “no binding”.
With “endogenous p50 (from UniProt P19838 1-433)”, the binding entry in assay [2] is listed as “binds”.
Take “endogenous LRP16 (from UniProt Q9BQ69 1-325)”: the binding entry in assay [3] is given as “binds”.
For “endogenous p65 (from UniProt Q04206 1-551)”, the binding result in assay [4] was “binds”.
Turning to “p65 fragment 1–372 (from UniProt Q04206 1-372) (domain or fragment)”, the binding entry in assay [1] was “binds”.
Turning to “p65 fragment 1–312 (from UniProt Q04206 1-312) (domain or fragment)”, the binding entry in assay [1] is “binds”.
In the case of “p65 fragment 307–551 (from UniProt Q04206 307-551) (domain or fragment)”, in assay [1], the binding entry is on record as “no binding”.
As to “p65 (transfected) (from UniProt Q04206 1-551)”, the binding entry in assay [5] is reported as “binds”.

B1: c-Rel ([35S]methionine-labeled) (protein, UniProt Q04864 1-619)
chain: MASGAYNPYIEIIEQPRQRGMRFRYKCEGRSAGSIPGEHSTDNNRTYPSIQIMNYYGKGKVRITLVTKNDPYKPHPHDLVGKDCRDGYYEAEFGQERRPLFFQNLGIRCVKKKEVKEAIITRIKAGINPFNVPEKQLNDIEDCDLNVVRLCFQVFLPDEHGNLTTALPPVVSNPIYDNRAPNTAELRICRVNKNCGSVRGGDEIFLLCDKVQKDDIEVRFVLNDWEAKGIFSQADVHRQVAIVFKTPPYCKAITEPVTVKMQLRRPSDQEVSESMDFRYLPDEKDTYGNKAKKQKTTLLFQKLCQDHVETGFRHVDQDGLELLTSGDPPTLASQSAGITVNFPERPRPGLLGSIGEGRYFKKEPNLFSHDAVVREMPTGVSSQAESYYPSPGPISSGLSHHASMAPLPSSSWSSVAHPTPRSGNTNPLSSFSTRTLPSNSQGIPPFLRIPVGNDLNASNACIYNNADDIVGMEASSMPSADLYGISDPNMLSNCSVNMMTTSSDSMGETDNPRLLSMNLENPSCNSVLDPRDLRQLHQMSSSSMSAGANSNTTVFVSQSDAFEGSDFSCADNSMINESGPSNSTNPNSHGFVQDSQYSGIGSMQNEQLSDSFPYEFFQV
modifications: [35S]methionine-labeled
For the molecule B1, the binding entry in assay [1] is reported as “no binding”.
